Test results: the supplement of paper PMC3334620
Whole data set: some 33,000 sequences, median “E-score (-0.5 to 0.5)” near -0.012, cut for the highest 2% near 0.27. This is one part of the list.

Biological target: T1, Vhr1 (UniProt P40522)
T1 sequence: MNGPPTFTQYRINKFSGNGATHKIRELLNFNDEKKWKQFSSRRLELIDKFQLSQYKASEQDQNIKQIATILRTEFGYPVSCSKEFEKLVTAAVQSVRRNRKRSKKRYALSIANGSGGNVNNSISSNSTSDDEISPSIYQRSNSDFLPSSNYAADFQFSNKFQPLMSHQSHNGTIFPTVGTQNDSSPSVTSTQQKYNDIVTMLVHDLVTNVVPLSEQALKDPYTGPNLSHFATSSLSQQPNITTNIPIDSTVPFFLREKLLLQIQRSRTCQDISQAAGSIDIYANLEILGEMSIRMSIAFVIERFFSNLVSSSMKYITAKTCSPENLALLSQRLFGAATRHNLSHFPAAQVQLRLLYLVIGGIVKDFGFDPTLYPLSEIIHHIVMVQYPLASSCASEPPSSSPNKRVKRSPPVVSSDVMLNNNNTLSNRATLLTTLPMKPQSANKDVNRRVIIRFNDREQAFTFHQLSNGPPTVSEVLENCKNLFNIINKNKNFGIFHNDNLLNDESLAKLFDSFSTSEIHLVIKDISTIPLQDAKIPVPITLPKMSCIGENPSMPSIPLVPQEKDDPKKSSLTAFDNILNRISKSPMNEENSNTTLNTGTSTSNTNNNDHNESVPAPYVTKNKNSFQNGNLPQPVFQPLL
Experiment: PBM E-score (8-mer binding enrichment) (E-score (-0.5 to 0.5)); higher = stronger / more preferred TF binding; most listed sequences are background and not binding sites
Conditions: protein concentration: 200 nM; construct: GST-full length
Outline: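 GST-tagged yeast TFs (full-length or DNA-binding domain) were made by PURExpress in vitro transcription/translation and applied at about 100-200 nM to universal all-10-mer Agilent arrays. The arrays were made double-stranded by primer extension, on fresh or once-stripped slides. Bound protein was detected with fluorescent anti-GST, and scans were normalised with masliner. Each ungapped eight-base word, pooled with its reverse complement, received an E-score (modified Wilcoxon-Mann-Whitney statistic) from the Universal PBM Analysis Suite.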

| Sequence | PBM E-score |
| --- | --- |
| ACTAAACT | -0.0854 |
| CGAGCTAG | -0.0521 |
| ATGACAAA | 0.00026 |
| ATCTAACC | -0.175 |
| AGAGGACA | -0.188 |
| CGAAGGCG | 0.0904 |
| GTGTCATA | 0.127 |
| ATCGCGAC | 0.241 |
| AGTTCGCA | -0.182 |
| AACCGCAT | 0.0684 |
| CCCAACGG | 0.134 |
| CAGTTTGA | 0.00908 |
| GCCGCTCC | -0.145 |
| ACACCTGT | 0.131 |
| CGCTGCAA | -0.0576 |
| AAGGCGCT | -0.0758 |
| GTCACAAA | -0.0213 |
| AATTCTCT | -0.285 |
| CCCCGGAG | 0.146 |
| GTCTGCCA | -0.00754 |
| ACGAAACA | 0.0611 |
| ACTGGCCA | 0.14 |
| GTCTCCGA | 0.106 |
| AAATTAAA | -0.206 |
| AATCTGCC | -0.00178 |

| Sequence | PBM E-score |
| --- | --- |
| GCATCAGA | 0.141 |
| GTACCCTA | 0.0707 |
| AACGTCTT | -0.249 |
| CGCTGACG | -0.182 |
| TATGTGCA | -0.0485 |
| TATAAACA | 0.0487 |
| AGCTACCG | -0.0562 |
| AGTGTACG | 0.163 |
| ATCCAATA | 0.135 |
| TAAGCGGA | -0.18 |
| CGTTAGCC | -0.08 |
| CAGAACTA | -0.026 |
| CCCAACCC | 0.118 |
| ACGCCACT | 0.0441 |
| GATAATTA | -0.00953 |
| CACTGACG | -0.0183 |
| CGCTCAAA | -0.099 |
| CCGTTCTC | -0.181 |
| AAATAGGA | -0.048 |
| AGAGGGTA | -0.0289 |
| AACTGCTG | -0.0272 |
| CGCAGCCG | 0.0461 |
| TAACGGCA | 0.0468 |
| AACCTGCG | 0.0224 |
| ACTCTTAA | -0.233 |

| Sequence | PBM E-score |
| --- | --- |
| ACTCATGC | 0.322 |
| ACACTCAC | 0.281 |
| CCGAGTCG | 0.336 |
| AAGTGGTG | 0.0502 |
| CGCTTTCC | -0.0564 |
| CAGCCAAA | 0.0934 |
| AGACGCAC | -0.0191 |
| CCTCGCCA | -0.0907 |
| GGCGGCTA | 0.0425 |
| AGATCCTA | -0.074 |
| ACCCACGC | 0.235 |
| CACCTTGA | -0.0769 |
| TTCGAGAA | -0.0407 |
| CCACGTGG | -0.129 |
| AACACGGG | 0.216 |
| GGGTCATA | 0.186 |
| ACAAATCC | 0.128 |
| CCGTAAGC | -0.149 |
| GTGGTCGA | -0.168 |
| ATAGACTA | 0.187 |
| CCCACTAC | 0.171 |
| CATCTACA | 0.173 |
| AAGCAAGT | -0.0526 |
| ATCCAAGC | 0.0358 |
| GACTGGCC | 0.0317 |

| Sequence | PBM E-score |
| --- | --- |
| CCACGTGC | 0.0534 |
| GCATCAAA | 0.0425 |
| AAGACTAC | 0.122 |
| CTTTAGTC | -0.049 |
| ATGCCGCG | 0.0183 |
| GAGGTAGA | -0.00762 |
| CGAATGCC | -0.0201 |
| CCTCATCG | 0.0284 |
| ATCGAGGG | -0.0103 |
| ACTACTGG | 0.0711 |
| CTGTCAGC | -0.0512 |
| CGCAACCC | 0.0271 |
| CTAGACTA | -0.0704 |
| CTTAAACA | 0.077 |
| CTAGGGGC | -0.146 |
| GCCAGTAC | 0.082 |
| GACTGGAC | -0.016 |
| CGTTTAGC | -0.145 |
| AAATTGAG | -0.109 |
| ATTAGCGG | -0.292 |
| CATAAACA | -0.0683 |
| ACAGGTCT | -0.158 |
| GTGGAAAC | -0.105 |
| GAGTACAC | 0.185 |
| CTAGGTTA | 0.0188 |

| Sequence | PBM E-score |
| --- | --- |
| AATGCACA | 0.0865 |
| AGCTAATA | 0.0454 |
| CATCGGAA | 0.104 |
| AACCCTTG | -0.102 |
| ATCAGGCG | 0.127 |
| ATAACCGC | 0.139 |
| GCGGCTCC | -0.197 |
| AGCACCCG | 0.00487 |
| CCGTGGCA | -0.102 |
| CGCTTAGC | -0.122 |
| ACGAATAT | 0.0505 |
| GACAGCGA | -0.0983 |
| GGATCACC | -0.0237 |
| CTTAATTC | -0.255 |
| GGTTATTA | 0.00306 |
| ATCACCCA | 0.223 |
| GTACGACA | 0.0506 |
| GGAATCCC | 0.034 |
| ACCTATTG | -0.187 |
| CAACGTGC | 0.0282 |
| ATATAGCG | -0.0993 |
| CTCCGTCC | -0.258 |
| AGCACCAT | -0.106 |
| AGCTCTAT | -0.212 |
| AGGTAAAC | -0.06 |

| Sequence | PBM E-score |
| --- | --- |
| CGTGCAAG | -0.0988 |
| GAATCCAC | 0.106 |
| CATATCCG | 0.175 |
| ATGACCAC | 0.176 |
| GATTCAAC | 0.202 |
| GTGCGGAA | 0.0128 |
| GGACCATA | -0.0391 |
| AATTCCGC | -0.176 |
| AAAAGCAT | -0.124 |
| ACGCATTC | 0.0234 |
| CACAGATA | -0.0619 |
| AGGGACAC | 0.16 |
| GGGGCTTA | -0.382 |
| CAGTCTGC | -0.0217 |
| AAACACCG | 0.0312 |
| ACGATAGC | -0.174 |
| AGCGACGC | -0.0461 |
| ACTTTAGA | -0.184 |
| ACTTCACG | -0.211 |
| AACGGAGA | -0.105 |
| ATATCGCG | 0.18 |
| CCTAGCCC | -0.18 |
| AAAGATGT | -0.0237 |
| GAGGAGCC | -0.112 |
| CGTTGATC | -0.0879 |

| Sequence | PBM E-score |
| --- | --- |
| CACAGGCA | 0.161 |
| CGCGTGAG | 0.136 |
| AGCGAGCT | 0.0721 |
| AGGTTCAC | -0.159 |
| AAACTACT | -0.0389 |
| GACCGGTA | -0.143 |
| CAATCTAA | -0.13 |
| AGTGTATA | -0.00477 |
| GAGTTCGC | 0.059 |
| ACTCCAGG | 0.0235 |
| GCTAGTAA | -0.0868 |
| CGCCTTAG | -0.174 |
| CTCCACTC | -0.247 |
| AACGCCCA | -0.0717 |
| CAGAAACC | 0.228 |
| CACAGGGA | 0.0855 |
| CGTTCGGA | 0.104 |
| AGCTGTCA | -0.0511 |
| AACGGCTC | -0.00563 |
| ACGCGTGA | 0.214 |
| ACTGTGGC | -0.0773 |
| CGTGCGTC | -0.00614 |
